Among all 310,000 compounds or so, about 2,200 (0.71%) showed an effect of 50% or more. Effects have a minus sign here. The list shows a part of the results.

The target of the experiment is human ether-à-go-go-related gene (hERG) potassium channel (human, UniProt Q12809). Put plainly: primary screen, population patch clamp on CHO cells stably expressing hERG.
human ether-à-go-go-related gene (hERG) potassium channel, sequence (Q12809 whole entry, looked up): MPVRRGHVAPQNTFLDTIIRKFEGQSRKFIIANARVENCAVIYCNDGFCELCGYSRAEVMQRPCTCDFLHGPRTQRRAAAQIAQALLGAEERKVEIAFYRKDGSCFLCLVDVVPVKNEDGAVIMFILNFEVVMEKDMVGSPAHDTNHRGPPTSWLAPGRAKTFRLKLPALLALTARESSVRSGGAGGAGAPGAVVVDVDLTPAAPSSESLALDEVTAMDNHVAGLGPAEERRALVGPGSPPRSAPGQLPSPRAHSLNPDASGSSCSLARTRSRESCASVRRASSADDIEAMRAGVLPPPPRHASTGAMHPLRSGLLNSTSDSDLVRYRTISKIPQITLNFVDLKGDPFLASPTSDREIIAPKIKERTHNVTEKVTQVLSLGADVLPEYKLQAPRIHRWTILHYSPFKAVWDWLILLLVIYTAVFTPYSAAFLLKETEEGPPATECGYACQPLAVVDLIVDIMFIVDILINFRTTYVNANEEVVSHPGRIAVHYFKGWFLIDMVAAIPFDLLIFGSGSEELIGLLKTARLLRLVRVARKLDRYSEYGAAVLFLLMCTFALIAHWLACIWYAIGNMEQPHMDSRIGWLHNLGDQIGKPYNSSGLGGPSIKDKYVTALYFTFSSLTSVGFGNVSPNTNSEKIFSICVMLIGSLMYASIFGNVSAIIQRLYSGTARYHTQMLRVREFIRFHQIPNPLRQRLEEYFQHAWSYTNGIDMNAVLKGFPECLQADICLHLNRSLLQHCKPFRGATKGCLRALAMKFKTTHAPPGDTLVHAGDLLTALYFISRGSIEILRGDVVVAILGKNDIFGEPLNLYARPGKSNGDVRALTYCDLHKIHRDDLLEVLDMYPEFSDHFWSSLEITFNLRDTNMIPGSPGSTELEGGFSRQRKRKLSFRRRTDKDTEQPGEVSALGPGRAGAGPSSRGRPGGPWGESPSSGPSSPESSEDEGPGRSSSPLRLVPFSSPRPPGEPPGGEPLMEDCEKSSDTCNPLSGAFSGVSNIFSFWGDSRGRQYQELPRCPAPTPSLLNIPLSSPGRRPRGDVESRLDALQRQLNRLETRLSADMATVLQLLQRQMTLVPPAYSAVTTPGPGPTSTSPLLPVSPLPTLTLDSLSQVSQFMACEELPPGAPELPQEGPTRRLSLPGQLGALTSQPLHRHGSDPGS
Consider `O=C(C1=NN[C@@H]2C(=O)N(c3cccc(C(F)(F)F)c3)C(=O)[C@H]12)c1cnccn1`, for which the “hERG current change (%, negative = inhibition) at 1uM” value stood at 11.6%.

`COCCNC(=S)N1CCN(C)CC1.O=C(O)C(=O)O`: the “hERG current change (%, negative = inhibition) at 1uM” value is 8.6%.

For the compound `CCOC(=O)CNC(=O)c1ccc(OCC(F)(F)F)cc1`, the “hERG current change (%, negative = inhibition) at 1uM” value came to 6.16%.

In the case of `CCn1ccnc1CN1CCN(CC(C)C)C(CCO)C1` (centres unmarked), the “hERG current change (%, negative = inhibition) at 1uM” value was 3.47%.

As to `CC(C)(C)C(=O)CSc1ncnc2c1cnn2Cc1ccccc1`, the “hERG current change (%, negative = inhibition) at 1uM” value was 12.1%.

As for `CC1CCCCN1S(=O)(=O)c1ccc(-n2cnnn2)cc1` (centres unmarked), the “hERG current change (%, negative = inhibition) at 1uM” value is -10.3%.

Consider `CC1(C)CC(C2N3CC4(C)CN2CC(C)(C3)C4=O)CCO1` (centres unmarked), for which the “hERG current change (%, negative = inhibition) at 1uM” value came out at 5.02%.

`O=C(N/C(=C/c1cccc([N+](=O)[O-])c1)C(=O)N1CCCCCC1)c1ccco1`: the “hERG current change (%, negative = inhibition) at 1uM” value is 7.99%.

Regarding `COc1ccc(C2CC(=O)C=C(NNS(=O)(=O)c3ccc(C)cc3)C2)cc1` (centres unmarked), the “hERG current change (%, negative = inhibition) at 1uM” value was found to be 5.25%.

With `CCCCc1ccc(S(=O)(=O)Nc2nnc(C)s2)cc1`, the “hERG current change (%, negative = inhibition) at 1uM” value was determined as 21.9%.

In the case of `CC(=O)c1cccc(NC(=O)CN(C)Cc2ccc(OC(F)F)cc2)c1`, the “hERG current change (%, negative = inhibition) at 1uM” value was -2.11%.

In the case of `N#CCOc1ccccc1/C=N/n1nnnc1N`, the “hERG current change (%, negative = inhibition) at 1uM” value worked out at 17.1%.

In the case of `CCOC(=O)c1nnn(CC(=O)Nc2cc(Cl)ccc2C)c1C(=O)OCC`, the “hERG current change (%, negative = inhibition) at 1uM” value is listed as 16.4%.

On to `O=C(Nc1cccc([N+](=O)[O-])c1)C1C2CC/C=C\CCC21` (centres unmarked), for which the “hERG current change (%, negative = inhibition) at 1uM” value stood at 12.4%.

For `CC1CCCCN1CCNC(=O)c1ccc2c(c1)N(Cc1cccc(Cl)c1)C(=O)c1ccccc1S2=O` (centres unmarked), the “hERG current change (%, negative = inhibition) at 1uM” value came out at 7%.

Take `COC(=O)Cn1c(C)nc([N+](=O)[O-])c1Br`: the “hERG current change (%, negative = inhibition) at 1uM” value came out at 5.63%.

Consider `CN(C1CCCCC1)S(=O)(=O)c1cccc2nsnc12`, for which the “hERG current change (%, negative = inhibition) at 1uM” value is recorded as 11.9%.

With `Cc1[nH]n(-c2ccccc2)c(=O)c1Sc1ccc(Cl)cc1`, the “hERG current change (%, negative = inhibition) at 1uM” value is 7.11%.

In the case of `O=C(/C=C/c1cccc([N+](=O)[O-])c1)NCCSc1ccccc1`, the “hERG current change (%, negative = inhibition) at 1uM” value is given as 4.19%.

As for `O=C(C1CCCO1)N1CCN(Cc2nc3ccccc3c(=O)[nH]2)CC1` (centres unmarked), the “hERG current change (%, negative = inhibition) at 1uM” value was found to be 11.1%.

On to `COCCNC(=O)c1ccc(NS(C)(=O)=O)cc1`, for which the “hERG current change (%, negative = inhibition) at 1uM” value was 10.2%.

As for `O=C(N/N=C/c1cc(Cl)ccc1O)c1ccccc1Br`, the “hERG current change (%, negative = inhibition) at 1uM” value is 14.5%.

With `Cc1ccn2cc(-c3cccc(NC(=O)CCC(=O)O)c3)nc2c1`, the “hERG current change (%, negative = inhibition) at 1uM” value is on record as 17.5%.

As for `Cc1onc(-c2ccccc2Cl)c1C(=O)N1CCCC1`, the “hERG current change (%, negative = inhibition) at 1uM” value was determined as 12%.

On to `COc1ccc(NC(=O)c2cc(C)no2)cc1`, for which the “hERG current change (%, negative = inhibition) at 1uM” value turned out to be 18.9%.

`COc1cc(NC(=O)CSc2ccc(-c3ccccn3)nn2)cc(OC)c1`: the “hERG current change (%, negative = inhibition) at 1uM” value came to 15.4%.

The values above are taken from publication PMC4336329 (PLoS ONE, 2015).
